Measured values published in PubChem BioAssay AID1963576 (National Center for Advancing Translational Sciences (NCATS), 2024).
Among all 46,000 compounds or so, about 60 (0.1%) were called active. About 3% were inconclusive and are not listed. Calls come from the whole dose curve; as a rule, active = well fitted inhibition curve with a large enough effect; inconclusive = small, poorly fitted or top-dose-only effect; inactive = no such curve, though single readings can be large or run the other way. The list shows a part of the results.

Experiment: Primary qHTS assay for Inhibitors of ovarian cancer metastasis using an organotypic tumor microenvironment (TME) model.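 For activity change, negative = inhibition: plate controls were DMSO wells for no effect and tomatine positive control wells for full effect.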 Note: nearly all actives have a fitted effect of over 65% in size.
Details: SKOV3ip1-GFP adhesion/invasion on 3D omental model, fluorescence; series mostly up to 45.8 µM; activity change, negative = inhibition: at the top concentration
Summary of the method: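 Primary human omental fibroblast/mesothelial 3D culture pre-formed 48 h. SKOV3ip1-GFP cells added with compounds (0.36-46 umol/L), incubated 2 h RT/16 h 37 C, fixed; GFP cells quantified at 488/509 nm.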

Activity change, negative = inhibition, inactive:
Cc1cc(C)nc(-n2nc(C)c3c2N(Cc2ccccc2C)C(=O)CC3c2ccc(Cl)cc2)n1 (stereo unspecified) 8.13%
COC(=O)c1ccccc1N(C)S(=O)(=O)c1cc2c3c(c1)CC(=O)N3CCC2 -13%
CC(C)CCSc1nnc2n(-c3ccccc3)c(=O)c3c4c(sc3n12)CC(C)CC4 (stereo unspecified) -4.97%
CCOC(=O)c1c(C)[nH]c(C)c1S(=O)(=O)NCC(=O)NCc1cccc(Br)c1 2.65%
O=C(Cn1cc(S(=O)(=O)Cc2cccc(Cl)c2)c2ccccc21)NCc1ccccc1Cl -6.63%
Cc1ccc(S(=O)(=O)Nc2cccc(-c3ccc(N4CCCC4)nn3)c2)c(C)c1 -1.18%
COc1cccc(NC(=O)/C(C#N)=C/c2ccc(-c3ccc(C)cc3)o2)c1 4.79%
Cc1ccc2cc3cc(C(=O)N4CCN(c5ccccc5)CC4)sc3nc2c1 9.35%
N#Cc1ccccc1OCC(=O)N1CCN(c2ccccc2)CC1 9.2%
CCCN1CCN(CCCNC(=O)c2cc3c(s2)-c2ccccc2OC3)CC1 0.437%
CNc1nccc(-c2cccnc2Oc2cc(C(=O)Nc3cccc(C(F)(F)F)c3)ccc2C)n1 -0.781%
COCCn1c(C)cc(O)c(C(c2ccccc2Cl)N2CCCCC2)c1=O (stereo unspecified) -5.68%
Cc1coc2c(C)c3oc(=O)c(CCC(=O)N4CCCCC4)c(C)c3cc12 -8.45%
O=C(Cn1ccc2cc(S(=O)(=O)N3CCCCCC3)ccc21)NCc1cccc(Cl)c1 -13.2%
CCCNc1ncnc2c1c(-c1ccccc1)cn2-c1ccccc1 0.764%
CCS(=O)(=O)Nc1ccc2[nH]c(O)c(C(=Nc3ccc(CN4CCCCC4)cc3)c3ccccc3)c2c1 33.2%
COc1ccc(-c2nsc(NC(=O)c3oc4ccccc4c3C)n2)cc1 -8.31%
CCn1cc(C(=O)N2CCN(c3cccc(C)c3)C(C)C2)c(=O)c2cc(S(=O)(=O)N3CCOCC3)ccc21 (stereo unspecified) 3.16%
C[C@H](NC(=O)[C@@H](O)c1cc(F)cc(F)c1)C(=O)N[C@@H]1C(=O)N(C)c2ccccc2-c2ccccc21 -0.223%
COc1ccc(NC(=O)Cn2nnc(-c3nc(-c4ccncc4)no3)c2N)cc1OC 4.83%
COc1ccccc1CCNC(=O)C(=O)NCC(c1cccnc1)N1CCN(c2ccccc2)CC1 (stereo unspecified) 8.87%
COCCn1c(C)cc(O)c(C(c2ccccc2F)N2CCN(c3ccccc3)CC2)c1=O (stereo unspecified) 6.84%
Cc1c(NS(=O)(=O)c2ccc(Cl)cc2)c(=O)n(-c2ccccc2)n1C 7.29%
CCCN1C(=O)c2oc3cc(C)cc(C)c3c(=O)c2C1c1ccc(F)cc1 (stereo unspecified) -9.11%
Cc1cc(=O)c2cc(C(=O)Nc3cccc(C)c3C)ccc2[nH]1 -1.56%
COc1ccc(-c2nc3cc(NC(=O)COc4ccc(C)c(C)c4)ccc3o2)cc1 2.15%
N#Cc1c(C2CCNCC2)cc(-c2c(O)cccc2OCC2CC2)nc1N 14.6%
COc1ccc(-c2nc(CSCC(=O)NCCc3ccccc3)c(C)o2)cc1 -24%
COc1cc(OC)c(NC(=O)CCc2c(C)nc3ncnn3c2C)cc1Cl 16.6%
O=C(NC1(C(F)(F)F)C(=O)Nc2c1c(=O)[nH]c(=O)n2-c1ccc(Cl)cc1)c1ccccc1F (stereo unspecified) -1.42%
COc1ccc(Cn2cc(S(=O)(=O)c3ccc(Cl)cc3)c(=O)c3cc4c(cc32)OCO4)cc1 17.9%
Cc1ccccc1OCCn1c(-c2ccc(Cl)cc2)nc2ccccc2c1=O -0.34%
Cc1cccc(NC(=O)Cn2cc(C(=O)c3ccco3)c3ccccc32)c1 -8.63%
Cc1ccc(CNC(=O)c2ccc(Cn3c(=O)c4ccccc4n(CC(=O)Nc4ccc(C)cc4)c3=O)cc2)cc1 11.5%
O=C(Nc1cccc(Cl)c1)c1ccc2c(c1)CCN2S(=O)(=O)c1ccccc1 9.35%
COc1ccc(-c2noc(-c3cccnc3N3CCN(c4ccc(OC)cc4)CC3)n2)cc1 6.15%
CCCCN(CC)C(=O)CSc1c2c(nc3ccc(Cl)cc13)CCCC2 -4.06%
O=c1cc(-c2ccc(O)c(O)c2)oc2cc(O)cc(O)c12 -13%
CCOc1ccc(NC(=O)c2sc3nc4c(c(-c5ccc(OC)cc5)c3c2N)C(=O)CC(C)(C)C4)cc1 0.159%
COC(=O)c1c(NC(=O)/C(C#N)=C/c2ccccc2)sc2c1CCC2 -0.533%
COc1cccc(NC(=O)c2ccc(-c3nc(COc4ccccc4)c(C)o3)cc2)c1 1.58%
O=C(OCc1cc(=O)n2nc(C3CCCCC3)sc2n1)c1ccc(F)cc1 14.3%
O=C(Nc1ccc2oc(-c3ccncc3)nc2c1)c1ccccc1Cl -3.12%

outcome, inactive:
CCc1ccc(NC(=O)Cn2c(=O)nc(-c3ccccc3F)c3cc(Cl)ccc32)cc1
CN(C)c1ccc(CNC(=O)CCCN2C(=O)CCn3nc(-c4cn(C)c5ccccc45)cc32)cc1
Cc1cccc(C)c1NC(=O)C1CCCN1S(=O)(=O)c1cccc2nsnc12 (stereo unspecified)
Cc1ccc(Cn2cc(CCC(=O)NCC(C)c3ccccc3)c3ccccc32)cc1 (stereo unspecified)
COc1ccc(C2=NN(CCC(=O)NCCc3ccccc3)C(=O)CC2)cc1
CCc1cccc(-n2nnc(S(=O)(=O)c3ccc(OC)cc3)c2C)c1
Cc1nc2c(c(C)c1CCC(=O)Nc1ccc(F)cc1)c(=O)n(C)c(=O)n2C
CCN(CC)CCCNC(=O)CCc1c(C)nc2c(c1C)c(=O)n(C)c(=O)n2C
Cc1ccc(C)c(NC(=O)c2cnc3sc(N4CCOCC4)nn3c2=O)c1
COc1ccc(-c2cc(C(F)(F)F)nc(SCC(=O)Nc3ccc(O)cc3)n2)cc1OC
CCOc1ccc(CNC(=O)c2ccc(NC(=O)N3CCSc4ncccc43)cc2)cc1
Cc1ccc(NC(=O)c2cccc(NC(=O)N3CCSc4ncccc43)c2)cc1F
Cc1cccc(NC(=O)CCn2cnnn2)c1C
CCC(=O)N1c2ccccc2CC1C(=O)NCc1ccccc1Cl (stereo unspecified)
COc1cccc(N2CCN(C(=O)c3cc4cc5cc(C)ccc5nc4s3)CC2)c1
CCOc1ccc(-n2cc(-c3ccccc3)c3c(N4CCN(c5ccccc5OC)CC4)ncnc32)cc1
CCOc1ccc(NC(=O)CC2C(=O)N(c3ccc(Cl)cc3)C(=O)N2Cc2cccs2)cc1 (stereo unspecified)
Cc1oc(-c2ccc(Cl)cc2)nc1CSc1nc2ncccc2[nH]1
